# Laboratory results reported in the RNAGym collection of RNA variant scans (doi:10.1101/gad.245936.114).
# Variants at the floor of the assay are shown more often than the library holds them.
# B1: tRNA (parent)
# chain: CUCUCGGUAGCCAAGUUGGUUUAAGGCGCAAGACUUUAAUUUAUCACUACGAAAUCUUGAGAUCGGGCGUUCGACUCGCCCCCGGGAGAUUUUUUCCUCGAGCAA
# Variants of: B1
# Experiment: nonsense suppression (GFP-seq) (ratio to wild type); higher = more function; SUP4oc tRNA, yeast GFP reporter sort-seq
# In short: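 Sorted GFP/RFP bins of yeast were each Illumina-sequenced with a phred ≥30 cutoff; the cells held a genome-integrated ochre-suppressor tRNA variant from a library with ~3% random mutations, a galactose-driven GFP ochre reporter, and RFP. Culture was in raffinose/galactose medium containing 80 mg/L adenine. Nonsense suppression, termed GFPSEQ, is the median GFP/RFP of the bins weighted by each variant's estimated cell share per bin, relative to the unmutated parent tRNA, for variants reaching ≥100 reads and ≥30 cells.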
row,Variant,nonsense suppression
1,C72U U76C,≤ 0.026
2,G69C C82G,≤ 0.026
3,C68A G73C,≤ 0.026
4,A74C G85C,≤ 0.026
5,U70G C81U A87U,≤ 0.026
6,G73A A87U,0.0409
7,G78A G88C,0.0845
8,U76C G86C,≤ 0.026
9,U71G U76C,≤ 0.026
10,C77U C81G G85A,≤ 0.026
11,G67U G69A A74G,≤ 0.026
12,G69A U71C G85U,≤ 0.026
13,U76G G78U,≤ 0.026
14,G66A U76C G88A,≤ 0.026
15,G66U G73U,≤ 0.026
16,U76A G84C A89U,≤ 0.026
17,U76G G88A,≤ 0.026
18,C75A C79U,1.21
19,C68A G85C A89G,≤ 0.026
20,C75G C77A,≤ 0.026
21,C75G C77G,≤ 0.026
22,G69U G78U,≤ 0.026
23,G69A G73U,≤ 0.026
24,A74C C81G,≤ 0.026

row,Variant,nonsense suppression
1,G69A G85C G86C,≤ 0.026
2,A74U G84C G85C,≤ 0.026
3,C72G C75A G84A,≤ 0.026
4,G69U U76C G78C,≤ 0.026
5,G67C G88U,≤ 0.026
6,U70G C75G,≤ 0.026
7,U70C U76G,≤ 0.026
8,U70A C75A,≤ 0.026
9,U70A C79G,≤ 0.026
10,G73A A74U A89G,≤ 0.026
11,G73U C82U,≤ 0.026
12,G66U G88C,≤ 0.026
13,G66U G88U,≤ 0.026
14,G67A G86U,≤ 0.026
15,C72U U76A C81G A89G,≤ 0.026
16,G78A C81G,0.0732
17,U70A G84A,≤ 0.026
18,C72U G84C,≤ 0.026
19,U71C G73U A87C,≤ 0.026
20,U76A C80G,≤ 0.026
21,A74G C82A,≤ 0.026
22,C68A U70A,≤ 0.026
23,G69C G84C,≤ 0.026
24,U70A C81A,≤ 0.026

row,Variant,nonsense suppression
1,U70C C75A,≤ 0.026
2,C75U G85U,1.12
3,U71G C72G,≤ 0.026
4,C72G G73A,0.0319
5,G78C C79G,≤ 0.026
6,G67C C83A,≤ 0.026
7,G67C C83U,≤ 0.026
8,U70C C79G C83G,≤ 0.026
9,U76A A87G,0.0534
10,U76A A87U,≤ 0.026
11,U76C G78A,0.0382
12,U76C G78U,0.0507
13,G67C U70G,≤ 0.026
14,C75A C77A,≤ 0.026
15,G73A C79U C81G,≤ 0.026
16,G69C G88U,≤ 0.026
17,U71C C77G G84C,≤ 0.026
18,G69U A87U,≤ 0.026
19,G69U A87G,≤ 0.026
20,C72A G84A,≤ 0.026
21,G73C G78U,≤ 0.026
22,U70C U71G,≤ 0.026
23,G73U C81G,≤ 0.026
24,G67A G78U,0.0411

row,Variant,nonsense suppression
1,G69U A74G,≤ 0.026
2,G67U C82G,≤ 0.026
3,G66U C79A,≤ 0.026
4,C68A U71C G86A,≤ 0.026
5,G66C C82A,≤ 0.026
6,U76G C79G G88A,≤ 0.026
7,U71G C77A C79U A87U,≤ 0.026
8,G73A C77A,≤ 0.026
9,G69C C75A C80A,≤ 0.026
10,U70G G73U A87G,≤ 0.026
11,G67A G69A U70A G73U,≤ 0.026
12,G66C U76C,≤ 0.026
13,G66C U76A,≤ 0.026
14,C75A C82A,0.217
15,G73U G86A,≤ 0.026
16,G66C G85U,≤ 0.026
17,G66C G85A,≤ 0.026
18,U70C G86A A87U,≤ 0.026
19,G73U U76A,≤ 0.026
20,U71A C81U,≤ 0.026
21,G67U A89G,≤ 0.026
22,G67U A89C,≤ 0.026
23,C68A C72G,≤ 0.026
24,G78A C81U A89G,≤ 0.026

row,Variant,nonsense suppression
1,G67A U71G,≤ 0.026
2,C68G C75U,≤ 0.026
3,C77U C82G,≤ 0.026
4,G69A G84U,≤ 0.026
5,U70A G86A,≤ 0.026
6,C68G G78A,≤ 0.026
7,C72A G84U G86A,≤ 0.026
8,G66U,≤ 0.026
9,G66C,≤ 0.026
10,U71A C82U,≤ 0.026
11,C72G G73C C79G,≤ 0.026
12,G67U C72G,≤ 0.026
13,G67A C83U,≤ 0.026
14,G67A C83G,≤ 0.026
15,U71A G73U C79G,≤ 0.026
16,G73C U76A,≤ 0.026
17,G73C U76C,≤ 0.026
18,G73C U76G,≤ 0.026
19,U71A G78A G85C,≤ 0.026
20,A74U C80G C83U G86C,≤ 0.026
21,G69C U76A,≤ 0.026
22,G73C G86A,≤ 0.026
23,G69A C80A,≤ 0.026
24,G78A C81U G88A,≤ 0.026

row,Variant,nonsense suppression
1,C75A A87U,≤ 0.026
2,U71A G85U,≤ 0.026
3,G67A U76G G78A,≤ 0.026
4,A74G C80U,≤ 0.026
5,A74G C80A,≤ 0.026
6,C68U U70C,0.0321
7,C68U U70G,≤ 0.026
8,C68U C82G,≤ 0.026
9,C68A C82G,≤ 0.026
10,U71C C72U,≤ 0.026
11,G66C G86U,≤ 0.026
12,U76C A89U,≤ 0.026
13,G66U C72A A89G,≤ 0.026
14,U71C G73U,≤ 0.026
15,U71C G73C,≤ 0.026
16,U71C G73A,≤ 0.026
17,G69U G73A C83A,≤ 0.026
18,G67C U71C C79A,≤ 0.026
19,U71C C82G G84C,≤ 0.026
20,U71G A89U,≤ 0.026
21,U71G A89G,≤ 0.026
22,U70C U71A A87G,≤ 0.026
23,C77G C82G G86C,≤ 0.026
24,G69A A87G,≤ 0.026

row,Variant,nonsense suppression
1,C68G C77U G84C,≤ 0.026
2,G67A G84U,0.0504
3,G73C C75A,≤ 0.026
4,U71G G78U,≤ 0.026
5,U71G G78C,≤ 0.026
6,U70A U71A A74C,≤ 0.026
7,U70A G78C G88U,≤ 0.026
8,A74G G78C G86C,≤ 0.026
9,A74C A87U,≤ 0.026
10,A74C A87G,≤ 0.026
11,G66C C75G,≤ 0.026
12,U76C G78A C80G,≤ 0.026
13,G66U C77G C79A,≤ 0.026
14,U70G A89U,≤ 0.026
15,G69C U70C C75A,≤ 0.026
16,G69C C83A,≤ 0.026
17,U76A C83G,≤ 0.026
18,G67A G85U,0.0862
19,G78C G84A,≤ 0.026
20,C75U G84A,≤ 0.026
21,C75G C80A,≤ 0.026
22,G66U C72G,≤ 0.026
23,G67A C80U,0.0261
